Reference: the supplement of paper PMC11348887
Where a name gives a salt, the structure may show the parent alone. This is one part of the list. Cut-off read from the data, not from the text of the source: active = -2 or less and inactive = the rest. Many values rest on one well or one pass, so single values are uncertain.

The compounds below were run on hPSC-derived cortical neurons (WA09) (assay: nuclei number (viability) z-score; higher = more surviving cells). Conditions: 5 µM; treatment: days 7-14 after plating, readout day 21.
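Note: nuclei counted from DAPI counterstain by automated high-content image analysis, four fields per well at ×20 in 384-well plates, with sequential b-score then z-score normalization.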

Structure (SMILES)	nuclei number (z-score)
Cc1cc(=O)n(-c2ccccc2)n1C [Antipyrine]	inactive: 0.331
Clc1ccc(COC(Cn2ccnc2)c2ccc(Cl)cc2Cl)c(Cl)c1 (stereo not given) [Miconazole]	inactive: -1.93
Clc1ccc(COC(Cn2ccnc2)c2ccc(Cl)cc2Cl)c(Cl)c1 (stereo not given) [Miconazole Nitrate]	inactive: -0.93
C=CC(=O)N1CCC(Oc2cc3c(Nc4ccc(Cl)c(Cl)c4F)ncnc3cc2OC)CC1 [Poziotinib (HM781-36B)]	inactive: -0.438
CO[C@@H](C(=O)N1Cc2[nH]nc(NC(=O)c3ccc(N4CCN(C)CC4)cc3)c2C1)c1ccccc1	inactive: 0.692
CN1CCN(C2=Nc3cc(Cl)ccc3Nc3ccccc32)CC1 [Clozapine]	inactive: 1.07
Cc1c(Cc2ccc3ccccc3n2)c2cc(F)ccc2n1CC(=O)O	inactive: 0.325
Brc1ccc([C@H]2CN3CCSC3=N2)cc1 [(-)-p-Bromotetramisole Oxalate]	inactive: 0.708
C[C@@H]1[C@H](O)[C@@H](C)/C=C/C=C/C=C/C=C/C=C/C=C/C=C/[C@H](O[C@@H]2O[C@H](C)[C@@H](O)[C@H](N)[C@@H]2O)C[C@@H]2O[C@](O)(C[C@@H](O)C[C@@H](O)[C@H](O)CC[C@@H](O)C[C@@H](O)CC(=O)O[C@H]1C)C[C@H](O)[C@H]2C(=O)O [Amphotericin B]	inactive: -0.0257
CN1CCN(c2ccc(-c3ccncc3-c3cc(F)c(O)c(F)c3)cc2)CC1	inactive: 0.241
C[C@]12CC[C@@H]3c4ccc(O)cc4CC[C@H]3[C@@H]1CC[C@@H]2OC(=O)CCC1CCCC1 [Estradiol Cypionate]	inactive: 0.5
C[C@H](NC(=O)[C@@H](O)c1cc(F)cc(F)c1)C(=O)N[C@@H]1C(=O)N(C)c2ccccc2-c2ccccc21	inactive: -1.21
CC(C)N(CCCNC(=O)Nc1ccc(C(C)(C)C)cc1)C[C@H]1O[C@@H](n2ccc3c(N)ncnc32)[C@H](O)[C@@H]1O	inactive: 0.484
C[C@H](NC(=O)Cc1cc(F)cc(F)c1)C(=O)N[C@H](C(=O)OC(C)(C)C)c1ccccc1	inactive: 0.0255
CNC(CC(=O)O)C(=O)O [NMDA (N-Methyl-D-aspartic acid)]	inactive: 0.459
CN1C2=CC(=O)/C(=N\NC(N)=O)C=C2CC1S(=O)(=O)O (stereo not given) [Carbazochrome sodium sulfonate (AC-17)]	inactive: -0.218
Cc1cc(Nc2ccc(NC(=O)c3ccc(Nc4ccnc5ccccc45)cc3)cc2)nc(N)n1	active: -3.41
CCC(NC(C)C)C(O)c1ccc(O)c(O)c1 (stereo not given) [Isoetharine Mesylate]	inactive: -0.285
O=C(Cc1ccc(-c2ccc(OCCN3CCOCC3)cc2)cn1)NCc1ccccc1	active: -7.36
CN1CC(=O)NC1=N [Creatinine]	inactive: 0.3
Nc1ncn([C@H]2C[C@H](O)[C@@H](CO)O2)c(=O)n1 [Decitabine]	inactive: 0.145
CC(=O)Nc1ccc(NC(=S)NC(=O)c2ccc(C(C)(C)C)cc2)cc1 [Tenovin-1]	inactive: -0.306
CCOc1cc(C(=O)N2CCC(N3CCN(C)CC3)CC2)ccc1Nc1ncc2c(n1)N(C1CCCC1)c1ccccc1C(=O)N2C	active: -6.78
O=C(NOCCO)c1ccc2cncn2c1Nc1ccc(I)cc1F	inactive: 0.512

Structure (SMILES)	nuclei number (z-score)
O=c1cc(-c2ccc(O)c(O)c2)oc2cc(O)cc(O)c12 [Luteolin]	inactive: -0.871
CCN[C@H]1C[C@H](C)S(=O)(=O)c2sc(S(N)(=O)=O)cc21 [Dorzolamide HCl]	inactive: 0.734
CC(C)/N=c1\cc2n(-c3ccc(Cl)cc3)c3ccccc3nc-2cc1Nc1ccc(Cl)cc1 [Clofazimine]	inactive: -0.197
O=C1Cc2cc(CCN3CCN(c4nsc5ccccc45)CC3)c(Cl)cc2N1 [Ziprasidone HCl]	inactive: -0.0471
CC(C)(Sc1cc(C(C)(C)C)c(O)c(C(C)(C)C)c1)Sc1cc(C(C)(C)C)c(O)c(C(C)(C)C)c1 [Probucol]	inactive: -0.0477
Oc1ccc(Cl)c2cccnc12 [Cloxiquine]	active: -3.45
Nc1c(Br)cc(Br)cc1CN[C@H]1CC[C@H](O)CC1 [Ambroxol HCl]	inactive: 1.11
Cn1ccnc1S [Methimazole]	inactive: 0.0304
C=CC(=O)Nc1cccc(Nc2nc(Nc3ccc(N4CCN(C(C)=O)CC4)cc3OC)ncc2C(F)(F)F)c1	inactive: 3.2
CS(=O)(=O)CCNCc1ccc(-c2ccc3ncnc(Nc4ccc(OCc5cccc(F)c5)c(Cl)c4)c3c2)o1 [Lapatinib]	active: -4.22
CS(=O)(=O)CCNCc1ccc(-c2ccc3ncnc(Nc4ccc(OCc5cccc(F)c5)c(Cl)c4)c3c2)o1	inactive: -1.32
COc1ccc(CCNCc2ccc(OCc3ccc(Cl)nc3)c(OC)c2)cc1OC	inactive: 0.402
CCOc1ccc(Cc2cc([C@@H]3O[C@H](SC)[C@@H](O)[C@H](O)[C@H]3O)ccc2Cl)cc1 [Sotagliflozin (LX4211)]	inactive: 0.581
CC(C)(C)C(=O)OCOP(=O)(COCCn1cnc2c(N)ncnc21)OCOC(=O)C(C)(C)C [Adefovir Dipivoxil]	active: -5.3
O.O.O.O.O=C([O-])CC(O)(CC(=O)[O-])C(=O)[O-].[Li+].[Li+].[Li+] [Citric acid trilithium salt tetrahydrate]	inactive: 1.01
N#CC(c1ccc(Cl)cc1)c1c(Cl)cc(-n2ncc(=O)[nH]c2=O)cc1Cl (stereo not given) [Diclazuril]	inactive: 0.316
O=c1ccc2ccc(O)c(O)c2o1 [Daphnetin]	inactive: -1.09
COc1cc(OC)c(C(=O)CCCN2CCCC2)c(OC)c1 [Buflomedil HCl]	inactive: 1.2
O=C(O)CC[C@H]1CC[C@@](c2cc(F)ccc2F)(S(=O)(=O)c2ccc(Cl)cc2)CC1	inactive: -0.771
C/C=C1\NC(=O)[C@H]2CSSCC/C=C/[C@H](CC(=O)N[C@H](C(C)C)C(=O)N2)OC(=O)[C@H](C(C)C)NC1=O [Romidepsin (FK228_ Depsipeptide)]	active: -5.05
CN1CCC(=C2c3ccccc3CC(=O)c3sccc32)CC1 [Ketotifen Fumarate]	inactive: -0.475
COc1ccccc1N1CCN(CC(O)COc2cccc3ccccc23)CC1 (stereo not given) [Naftopidil DiHCl]	active: -2.03
COc1ccccc1N1CCN(CC(O)COc2cccc3ccccc23)CC1 (stereo not given) [Naftopidil]	inactive: 0.117
Nc1nc(N)c2nc(-c3cccc(O)c3)cnc2n1	inactive: 0.705

Structure (SMILES)	nuclei number (z-score)
O=C1O[C@H](CO)[C@@H](O)[C@H](O)[C@H]1O [Gluconolactone]	inactive: 0.233
CC1(C)CCC(CN2CCN(c3ccc(C(=O)NS(=O)(=O)c4ccc(NCC5CCOCC5)c([N+](=O)[O-])c4)c(Oc4cnc5[nH]ccc5c4)c3)CC2)=C(c2ccc(Cl)cc2)C1	inactive: 0.861
COc1cc(OCc2cccc(-c3ccccc3)c2C)cc(OC)c1CN1CCCC[C@H]1C(=O)O [PD-1/PD-L1 inhibitor 1]	inactive: 0.0315
CCCCCCCCCCC[C@@H](C[C@@H]1OC(=O)[C@H]1CCCCCC)OC(=O)[C@H](CC(C)C)NC=O [Orlistat]	inactive: -0.216
CS(=O)(=O)c1cccc(CNc2nc(Nc3ccc4c(c3)CCC(=O)N4)ncc2C(F)(F)F)c1	inactive: 0.695
CC(C)(S)[C@@H](N)C(=O)O [Penicillamine]	inactive: 0.893
Cc1ccc(NC(=O)c2ccc(CN3CC[C@H](N(C)C)C3)c(C(F)(F)F)c2)cc1Nc1nccc(-c2cncnc2)n1 [Bafetinib (INNO-406)]	inactive: 0.518
CC(C)(Oc1ccc(Cl)cc1)C(=O)O [Clofibric Acid]	inactive: -0.2
CC(=O)[C@@]1(O)CC[C@H]2[C@@H]3CCC4=CC(=O)CCC4=C3[C@@H](c3ccc(N(C)C)cc3)C[C@@]21C [Ulipristal]	inactive: 1.8
COc1cc(Nc2ncc(F)c(Nc3ccc4c(n3)NC(=O)C(C)(C)O4)n2)cc(OC)c1OC [R406 (free base)]	inactive: -0.272
COc1cc(Nc2ncc(F)c(Nc3ccc4c(n3)NC(=O)C(C)(C)O4)n2)cc(OC)c1OC	inactive: 0.149
CC(=O)NO [Acetohydroxamic acid]	inactive: -0.13
O=NO [Sodium Nitrite]	inactive: -0.164
O=C(O)CCC(=O)Nc1ccc(Br)cn1 [Bikinin]	inactive: 0.462
COc1ccc(C(=O)Nc2sc3c(c2C(N)=O)CCCC3)cc1OC	inactive: 8.79
CC(=O)N[C@@H](CCC(N)=O)C(=O)O [Aceglutamide]	inactive: 0.97
CCC[C@H](Nc1nc(-c2ccc(NC(=O)NCC)c(OC)c2)ncc1C)c1cccnc1 [CYT997 (Lexibulin)]	active: -8.36
COc1cc2ncc(-c3ccccc3)nc2cc1OC [Tyrphostin AG 1296]	inactive: 0.649
Cc1[nH]c(=O)c(C#N)cc1-c1ccncc1 [Milrinone]	inactive: 0.414
CC(C)[C@H](CO)Nc1nc(Nc2cccc(Cl)c2)c2ncn(C(C)C)c2n1 [Purvalanol A]	inactive: 0.313
Cc1ccnc2c1NC(=O)c1cccnc1N2C1CC1 [Nevirapine]	inactive: 4.24
CN(C)CCC=C1c2ccccc2CCc2ccccc21 [Amitriptyline HCl]	inactive: -0.237
